# Data as given in the supplement of paper PMC8728848.
# The other results are listed elsewhere or left out.
# What was measured:
# Assay in all cases: glycan array binding signal (z-score within array); higher = stronger binding
# Conditions in all cases: glycan notation: IUPAC condensed, linker removed
# [1] = biological target: Neu5Ac(a2-3)Gal(b1-3)GlcNAc(b1-3)Gal(b1-3)GlcNAc
# How it was run: (§1)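 The Consortium for Functional Glycomics database supplied 3228 glycan arrays, of which those lacking an available protein sequence were dropped. The binding signal, a within-array Z-score, was averaged across arrays of the same protein sequence and across linkers. Negative scores can be read as non-binding.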
# [2] = biological target: Neu5Ac(a2-3)Gal(b1-3)GlcNAc6S
# How it was run: as §1
# [3] = biological target: Neu5Ac(a2-3)Gal(b1-3)[Fuc(a1-4)]GlcNAc
# How it was run: as §1
# [4] = biological target: Neu5Ac(a2-3)Gal(b1-3)[Fuc(a1-4)]GlcNAc(b1-3)Gal(b1-4)[Fuc(a1-3)]GlcNAc
# How it was run: as §1
# [5] = biological target: Neu5Ac(a2-3)Gal(b1-3)[Neu5Ac(a2-3)Gal(b1-4)]GlcNAc
# How it was run: as §1
# [6] = biological target: Neu5Ac(a2-3)Gal(b1-3)[Neu5Ac(a2-6)]GalNAc
# How it was run: as §1
# Neu5Ac(a2-3)Gal(b1-4)Glc = biological target: Neu5Ac(a2-3)Gal(b1-4)Glc
# How it was run: as §1
# [7] = biological target: Neu5Ac(a2-3)Gal(b1-4)GlcNAc
# How it was run: as §1
# [8] = biological target: Neu5Ac(a2-3)Gal(b1-4)GlcNAc(b1-2)Man(a1-3)[GlcNAc(b1-2)Man(b1-4)GlcNAc(b1-2)Man(a1-6)]Man(b1-4)GlcNAc(b1-4)GlcNAc
# How it was run: as §1
# [9] = biological target: Neu5Ac(a2-3)Gal(b1-4)GlcNAc(b1-2)Man(a1-3)[Neu5Ac(a2-3)Gal(b1-4)GlcNAc(b1-2)Man(a1-6)]Man(b1-4)GlcNAc(b1-4)GlcNAc
# How it was run: as §1
# [10] = biological target: Neu5Ac(a2-3)Gal(b1-4)GlcNAc(b1-2)Man(a1-3)[Neu5Ac(a2-6)Gal(b1-4)GlcNAc(b1-2)Man(a1-6)]Man(b1-4)GlcNAc(b1-4)GlcNAc
# How it was run: as §1
# [11] = biological target: Neu5Ac(a2-3)Gal(b1-4)GlcNAc(b1-3)Gal(b1-3)GlcNAc
# How it was run: as §1
# [12] = biological target: Neu5Ac(a2-3)Gal(b1-4)GlcNAc(b1-3)Gal(b1-4)GlcNAc
# How it was run: as §1
# [13] = biological target: Neu5Ac(a2-3)Gal(b1-4)GlcNAc(b1-3)Gal(b1-4)GlcNAc(b1-3)Gal(b1-4)GlcNAc
# How it was run: as §1
# [14] = biological target: Neu5Ac(a2-3)Gal(b1-4)GlcNAc(b1-3)Gal(b1-4)[Fuc(a1-3)]GlcNAc
# How it was run: as §1
# [15] = biological target: Neu5Ac(a2-3)Gal(b1-4)GlcNAc(b1-6)[Gal(b1-3)]GalNAc
# How it was run: as §1
# [16] = biological target: Neu5Ac(a2-3)Gal(b1-4)GlcNAc(b1-6)[Neu5Ac(a2-3)Gal(b1-3)]GalNAc
# How it was run: as §1
# [17] = biological target: Neu5Ac(a2-3)Gal(b1-4)GlcNAc6S
# How it was run: as §1
# [18] = biological target: Neu5Ac(a2-3)Gal(b1-4)[Fuc(a1-3)]GlcNAc
# How it was run: as §1
# [19] = biological target: Neu5Ac(a2-3)Gal(b1-4)[Fuc(a1-3)]GlcNAc(b1-3)Gal
# How it was run: as §1
# [20] = biological target: Neu5Ac(a2-3)Gal(b1-4)[Fuc(a1-3)]GlcNAc(b1-3)Gal(b1-4)GlcNAc
# How it was run: as §1
# [21] = biological target: Neu5Ac(a2-3)Gal(b1-4)[Fuc(a1-3)]GlcNAc(b1-3)Gal(b1-4)[Fuc(a1-3)]GlcNAc(b1-3)Gal(b1-4)[Fuc(a1-3)]GlcNAc
# How it was run: as §1
# [22] = biological target: Neu5Ac(a2-3)Gal(b1-4)[Fuc(a1-3)]GlcNAc(b1-6)[Gal(b1-3)]GalNAc
# How it was run: as §1
# [23] = biological target: Neu5Ac(a2-3)Gal(b1-4)[Fuc(a1-3)]GlcNAc6S
# How it was run: as §1
# [24] = biological target: Neu5Ac(a2-3)Gal6S(b1-4)GlcNAc
# How it was run: as §1
# [25] = biological target: Neu5Ac(a2-3)Gal6S(b1-4)[Fuc(a1-3)]GlcNAc
# How it was run: as §1
# Neu5Ac(a2-3)GalNAc = biological target: Neu5Ac(a2-3)GalNAc
# How it was run: as §1
# [26] = biological target: Neu5Ac(a2-3)GalNAc(b1-4)GlcNAc
# How it was run: as §1
# [27] = biological target: Neu5Ac(a2-3)[GalNAc(b1-4)]Gal(b1-4)Glc
# How it was run: as §1
# [28] = biological target: Neu5Ac(a2-3)[GalNAc(b1-4)]Gal(b1-4)GlcNAc
# How it was run: as §1
# [29] = biological target: Neu5Ac(a2-3)[Neu5Ac(a2-6)]GalNAc
# How it was run: as §1
# Neu5Ac(a2-6)Gal = biological target: Neu5Ac(a2-6)Gal
# How it was run: as §1
binder,measurement,setting,value
"E-Selectin (Mus musculus), Q00690 (protein) MNASRFLSALVFVLLAGESTAWYYNASSELMTYDEASAYCQRDYTHLVAIQNKEEINYLNSNLKHSPSYYWIGIRKVNNVWIWVGTGKPLTEEAQNWAPGEPNNKQRNEDCVEIYIQRTKDSGMWNDERCNKKKLALCYTASCTNASCSGHGECIETINSYTCKCHPGFLGPNCEQAVTCKPQEHPDYGSLNCSHPFGPFSYNSSCSFGCKRGYLPSSMETTVRCTSSGEWSAPAPACHVVECEALTHPAHGIRKCSSNPGSYPWNTTCTFDCVEGYRRVGAQNLQCTSSGIWDNETPSCKAVTCDAIPQPQNGFVSCSHSTAGELAFKSSCNFTCEQSFTLQGPAQVECSAQGQWTPQIPVCKAVQCEALSAPQQGNMKCLPSASGPFQNGSSCEFSCEEGFELKGSRRLQCGPRGEWDSKKPTCSAVKCDDVPRPQNGVMECAHATTGEFTYKSSCAFQCNEGFSLHGSAQLECTSQGKWTQEVPSCQVVQCPSLDVPGKMNMSCSGTAVFGTVCEFTCPDDWTLNGSAVLTCGATGRWSGMPPTCEAPVSPTRPLVVALSAAGTSLLTSSSLLYLLMRYFRKKAKKFVPASSCQSLQSFENYHVPSYNV",glycan array binding signal (z-score),[1],-0.307
same,glycan array binding signal (z-score),[2],-0.346
same,glycan array binding signal (z-score),[3],4.47
same,glycan array binding signal (z-score),[4],3.01
same,glycan array binding signal (z-score),[5],-0.289
same,glycan array binding signal (z-score),[6],-0.304
same,glycan array binding signal (z-score),Neu5Ac(a2-3)Gal(b1-4)Glc,-0.199
same,glycan array binding signal (z-score),[7],-0.333
same,glycan array binding signal (z-score),[8],-0.068
same,glycan array binding signal (z-score),[9],-0.203
same,glycan array binding signal (z-score),[10],-0.271
same,glycan array binding signal (z-score),[11],-0.113
same,glycan array binding signal (z-score),[12],-0.153
same,glycan array binding signal (z-score),[13],-0.184
same,glycan array binding signal (z-score),[14],-0.278
same,glycan array binding signal (z-score),[15],-0.332
same,glycan array binding signal (z-score),[16],-0.24
same,glycan array binding signal (z-score),[17],-0.206
same,glycan array binding signal (z-score),[18],3.05
same,glycan array binding signal (z-score),[19],2.72
same,glycan array binding signal (z-score),[20],3
same,glycan array binding signal (z-score),[21],3.13
same,glycan array binding signal (z-score),[22],2.21
same,glycan array binding signal (z-score),[23],3.24
same,glycan array binding signal (z-score),[24],-0.266
same,glycan array binding signal (z-score),[25],-0.129
same,glycan array binding signal (z-score),Neu5Ac(a2-3)GalNAc,-0.266
same,glycan array binding signal (z-score),[26],-0.371
same,glycan array binding signal (z-score),[27],-0.209
same,glycan array binding signal (z-score),[28],-0.334
same,glycan array binding signal (z-score),[29],-0.21
same,glycan array binding signal (z-score),Neu5Ac(a2-6)Gal,-0.355
